The campaign covered roughly 310,000 compounds. About 14,000 (4.5%) showed an effect of 50% or more. The effect is printed as a negative number. The list shows a part of the results.
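Further: peak tail current of the secondary pulse compared with the same well before compound.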

For the experiment, the target named is human ether-à-go-go-related gene (hERG) potassium channel (human, UniProt Q12809). In words: primary screen, population patch clamp on CHO cells stably expressing hERG.
human ether-à-go-go-related gene (hERG) potassium channel, sequence (Q12809 whole entry, looked up): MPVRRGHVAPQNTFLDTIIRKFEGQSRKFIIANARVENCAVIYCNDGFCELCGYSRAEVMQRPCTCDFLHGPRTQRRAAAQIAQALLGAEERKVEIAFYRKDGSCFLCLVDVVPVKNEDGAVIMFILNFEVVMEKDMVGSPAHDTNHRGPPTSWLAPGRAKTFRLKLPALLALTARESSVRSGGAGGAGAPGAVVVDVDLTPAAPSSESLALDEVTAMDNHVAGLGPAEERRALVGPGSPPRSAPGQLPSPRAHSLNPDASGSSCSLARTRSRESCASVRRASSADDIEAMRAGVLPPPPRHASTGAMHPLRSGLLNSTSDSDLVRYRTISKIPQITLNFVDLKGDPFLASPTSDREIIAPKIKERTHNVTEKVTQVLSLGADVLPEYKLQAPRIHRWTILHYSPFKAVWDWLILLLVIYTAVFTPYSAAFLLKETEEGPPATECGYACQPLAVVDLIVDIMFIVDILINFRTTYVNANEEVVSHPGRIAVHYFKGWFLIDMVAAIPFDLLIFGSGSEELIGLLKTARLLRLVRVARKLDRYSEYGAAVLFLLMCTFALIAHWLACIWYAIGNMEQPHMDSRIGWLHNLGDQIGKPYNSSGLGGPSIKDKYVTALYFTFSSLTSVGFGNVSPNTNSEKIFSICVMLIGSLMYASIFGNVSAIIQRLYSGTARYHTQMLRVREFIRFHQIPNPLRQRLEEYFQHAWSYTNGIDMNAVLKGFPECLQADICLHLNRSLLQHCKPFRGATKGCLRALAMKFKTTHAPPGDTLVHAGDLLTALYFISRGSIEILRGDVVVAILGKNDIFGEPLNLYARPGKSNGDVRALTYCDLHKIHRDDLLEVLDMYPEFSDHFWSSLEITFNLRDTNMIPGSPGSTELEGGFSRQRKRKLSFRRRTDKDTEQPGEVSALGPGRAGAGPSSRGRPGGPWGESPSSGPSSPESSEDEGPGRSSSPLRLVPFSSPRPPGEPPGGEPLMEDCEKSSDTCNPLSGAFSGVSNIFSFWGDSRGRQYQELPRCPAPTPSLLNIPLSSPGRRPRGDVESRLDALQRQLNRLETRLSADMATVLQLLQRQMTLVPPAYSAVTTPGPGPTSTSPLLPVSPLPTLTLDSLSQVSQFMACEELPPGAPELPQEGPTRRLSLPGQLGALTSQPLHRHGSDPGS
Turning to `Cc1ccc(NC(=O)CS(=O)Cc2nc(-c3ccc(C)cc3)oc2C)cc1` (centres unmarked), the “hERG current change (%, negative = inhibition) at 10uM” value was -27.3%.
For `Cc1[nH]c2ccc(Br)cc2c(=S)c1C/C=C/Cl`, the “hERG current change (%, negative = inhibition) at 10uM” value was -4.28%.
As for `Cc1nn(-c2ccccc2)c(Cl)c1/C=C/C(=O)c1ccc(O)cc1`, the figure is 5.38%.
Turning to `Cc1c(C(=O)N2CCN(c3ccccc3)CC2)sc2nc3n(c(=O)c12)CCC3`, the “hERG current change (%, negative = inhibition) at 10uM” value came to 6.84%.
For `CCCCNC(=O)c1ccc2c(c1)S(=O)(=O)c1ccccc1C2=O` the value was -27.9%; for `COc1ccc(N2CCN(C(=O)C3CCN(S(=O)(=O)c4cccs4)CC3)CC2)cc1`, -49.3%; for `O=C(OCC1CC(c2ccccc2Cl)=NO1)c1ccc(Br)cc1` (centres unmarked), 4.88%.
Consider `COC(=O)c1ccsc1NC(=O)c1ccc2c(c1)OCCO2`, for which the “hERG current change (%, negative = inhibition) at 10uM” value amounted to 8.1%.
As for `C=CCOc1cccc(C2C(C(=O)c3ccco3)=C(O)C(=O)N2Cc2ccco2)c1` (centres unmarked), the figure is 9.44%; as for `CC(C)N(C)Cc1cn(C)nc1-c1ccc(Oc2ccccc2)cc1`, -30.2%; as for `Cc1ccc(S(=O)(=O)N2CC(=O)Nc3ccccc32)cc1`, -5.87%.
As for `CC(C)(C)c1csc(NC(=O)c2cccs2)n1`, the figure is -16.3%; as for `CCCCNC(=O)CSc1nnc(-c2c[nH]c3ccccc23)n1CC1CCCO1` (centres unmarked), -3%; as for `CC(=O)Nc1ccc(OC(=O)c2cccs2)cc1`, -7.22%.
As for `O=S(=O)(/N=C(/Nc1ccc(Cl)c(S(=O)(=O)N2CCOCC2)c1)c1ccc(F)cc1)c1ccccc1`, the figure is -21%; as for `CSc1cccc(CNC(=O)C2CCC(=O)N(CCCN3CCCC3=O)C2)c1` (centres unmarked), 20.5%; as for `Cc1c(C(=O)NCc2ccc3c(c2)cc(C)n3C)cccc1[N+](=O)[O-]`, 0.389%.
Consider `COc1cc2nc(N(CCCN(C)C)C(=O)c3ccc(S(=O)(=O)N4CCc5ccccc54)cc3)sc2cc1OC.Cl`, for which the “hERG current change (%, negative = inhibition) at 10uM” value is recorded as -23.6%.
For the compound `Cn1nc(C(=O)NCCc2ccc(S(N)(=O)=O)cc2)c2c1-c1ccccc1S(=O)(=O)C2`, the “hERG current change (%, negative = inhibition) at 10uM” value was determined as 8.39%.
As to `COc1ccccc1N/N=C1\COC(C)(C)CC1=O`, the “hERG current change (%, negative = inhibition) at 10uM” value was -6.5%.
For `COc1cccc(N2CCC(N3CCN(C)C(CCO)C3)CC2)c1` (centres unmarked) the value was 18.7%; for `CC(C)OC(=O)CSc1nnc(Cc2ccccc2)n1C`, -1.69%.
As for `CC(=O)Nc1ccc(NC2CCCCC2NS(=O)(=O)c2ccccc2)cc1` (centres unmarked), the figure is 10.8%.
As for `NC(=O)CSc1nc2cc(Cl)ccc2c(=O)n1C1CCCCC1`, the figure is -14%.
Regarding `NC(=S)N/N=C1\CC(n2nnn(-c3cccc(Cl)c3)c2=S)C2COC1O2` (centres unmarked), the “hERG current change (%, negative = inhibition) at 10uM” value is -26.8%.
For `CCOC(=O)C1CCN(C(=O)CN2C(=O)NC3(CCCCC3)C2=O)CC1` the value was 13.9%; for `Cc1ccc(CCNC(=O)CS(=O)Cc2nc(-c3cccc(C)c3)oc2C)cc1` (centres unmarked), -15.4%.
For `Cc1ccc(N2CCN(S(=O)(=O)N(C)C)CC2)cc1C` the value was 6.36%; for `COCCNC(=O)C(c1ccc(F)cc1)N(Cc1ccccc1)C(=O)CCC(=O)Nc1ccccn1` (centres unmarked), 8.9%.
On to `CCOC(=O)NN1C(=O)c2ccccc2NC1c1cccs1` (centres unmarked), for which the “hERG current change (%, negative = inhibition) at 10uM” value is -38.4%.
`CCOc1ccc2nc(N/C(N)=N/C(=S)Nc3cccc(OC)c3)nc(C)c2c1`: the “hERG current change (%, negative = inhibition) at 10uM” value is recorded as -0.334%.
For `O=C(CN1C(=O)C2C3C=CC(C4CC34)C2C1=O)Oc1ccccc1` (centres unmarked), the “hERG current change (%, negative = inhibition) at 10uM” value was 0.512%.
`Cc1ccc2nc(SCC(=O)OCc3ccccc3)nc(=O)n2c1`: the “hERG current change (%, negative = inhibition) at 10uM” value was -10.9%.
On to `CCCS(=O)(=O)N1CCCC(C(=O)NCc2cccnc2)C1` (centres unmarked), for which the “hERG current change (%, negative = inhibition) at 10uM” value is on record as 17.2%.
With `CC(=O)c1c(N2CCN(Cc3ccccc3)CC2)nc(=S)n(Cc2ccccc2)c1C`, the “hERG current change (%, negative = inhibition) at 10uM” value is -37.7%.
`Cn1cc(-c2ccccc2C(=O)O)c(=O)c2ccccc21`: the “hERG current change (%, negative = inhibition) at 10uM” value is listed as 22.4%.
For `O=C(Nc1ccccc1Cl)c1cc(S(=O)(=O)N2CCCCC2)ccc1N1CCOCC1` the value was -39.7%; for `COc1ccc2[nH]c(C(=O)O)c(NC(=O)c3ccccc3[N+](=O)[O-])c2c1`, 10.5%; for `N#Cc1c(NC(=O)CSCC(=O)O)sc2c1CCCC2`, 1.5%.
For `Fc1c(F)c(C(F)(F)F)c(F)c(F)c1N/N=C\c1cccs1` the value was 15.5%.
For `COc1ccc(OCC(O)Cn2ccnc2C)cc1` (centres unmarked) the value was 5.09%.
Regarding `COC(=O)c1cc2sccc2n1CC(=O)Nc1ccc(OC)c(OC)c1OC`, the “hERG current change (%, negative = inhibition) at 10uM” value was -1.08%.
For `CCn1c(SCC(N)=O)nnc1-c1ccc(S(=O)(=O)N2CCN(C)CC2)cc1` the value was 0.745%.
Regarding `CC(=O)c1ccc(S(=O)(=O)N2CCNCC2)cc1.Cl`, the “hERG current change (%, negative = inhibition) at 10uM” value is recorded as -1.77%.
For `C/C(=N\NC(=O)CCn1nnc2ccccc21)c1cccs1`, the “hERG current change (%, negative = inhibition) at 10uM” value stood at 11.8%.
For `CCCc1nc2ccc(NC(C)=O)cc2c(=O)n1Cc1ccc(Cl)cc1` the value was 13.1%; for `Cc1cc(Cl)ccc1OC(C)C(=O)NN=C1CCCCCC1` (centres unmarked), 7.3%; for `CNC(=O)COC(=O)c1cc(-c2ccco2)nc2ccccc12`, -2.59%.
For `Cc1ccc(NC(=O)C2C3/C=C\CCCCC32)cc1` (centres unmarked), the “hERG current change (%, negative = inhibition) at 10uM” value came out at 18.9%.
On to `O=C(CCN1CCN(c2ccccc2F)CC1)Nc1ccc(F)cc1`, for which the “hERG current change (%, negative = inhibition) at 10uM” value is -18.3%.
As for `CNC(C)C(=O)NC(C(=O)N1CCCC1C(=O)NC1CCCc2ccccc21)C(C)C.O=CO` (centres unmarked), the figure is 10.7%.
On to `COc1cc(/C=C2/C(=N)N3C=CSC3=NC2=O)ccc1OCCCOc1cc(C)ccc1C`, for which the “hERG current change (%, negative = inhibition) at 10uM” value was found to be 2.54%.
For `O=C(c1ccc(-c2ccc([N+](=O)[O-])cc2)o1)N1CCCCC1` the value was -58.4%; for `O=S(=O)(NCc1csc(-c2cccnc2)n1)c1ccc2c(c1)OCCO2`, -9.89%.
`Cc1cc(C)nc(SCC(=O)N/N=C\C(Br)=C\c2ccccc2)n1`: the “hERG current change (%, negative = inhibition) at 10uM” value came out at 8.74%.
Take `CCOc1ccc(C(=O)Nc2sc3c(c2C(=O)OC)CC(C)(C)NC3(C)C)cc1`: the “hERG current change (%, negative = inhibition) at 10uM” value is recorded as -7.16%.
